Screen size: about 310,000 compounds; about 14,000 (4.5%) showed an effect of 50% or more. The effect is printed as a negative number. This is one part of the list.
The molecules below were run against human ether-à-go-go-related gene (hERG) potassium channel (human, UniProt Q12809) (assay: primary screen, population patch clamp on CHO cells stably expressing hERG).
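Further: peak tail current of the secondary pulse compared with the same well before compound.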

Sequence of human ether-à-go-go-related gene (hERG) potassium channel (Q12809 whole entry, looked up): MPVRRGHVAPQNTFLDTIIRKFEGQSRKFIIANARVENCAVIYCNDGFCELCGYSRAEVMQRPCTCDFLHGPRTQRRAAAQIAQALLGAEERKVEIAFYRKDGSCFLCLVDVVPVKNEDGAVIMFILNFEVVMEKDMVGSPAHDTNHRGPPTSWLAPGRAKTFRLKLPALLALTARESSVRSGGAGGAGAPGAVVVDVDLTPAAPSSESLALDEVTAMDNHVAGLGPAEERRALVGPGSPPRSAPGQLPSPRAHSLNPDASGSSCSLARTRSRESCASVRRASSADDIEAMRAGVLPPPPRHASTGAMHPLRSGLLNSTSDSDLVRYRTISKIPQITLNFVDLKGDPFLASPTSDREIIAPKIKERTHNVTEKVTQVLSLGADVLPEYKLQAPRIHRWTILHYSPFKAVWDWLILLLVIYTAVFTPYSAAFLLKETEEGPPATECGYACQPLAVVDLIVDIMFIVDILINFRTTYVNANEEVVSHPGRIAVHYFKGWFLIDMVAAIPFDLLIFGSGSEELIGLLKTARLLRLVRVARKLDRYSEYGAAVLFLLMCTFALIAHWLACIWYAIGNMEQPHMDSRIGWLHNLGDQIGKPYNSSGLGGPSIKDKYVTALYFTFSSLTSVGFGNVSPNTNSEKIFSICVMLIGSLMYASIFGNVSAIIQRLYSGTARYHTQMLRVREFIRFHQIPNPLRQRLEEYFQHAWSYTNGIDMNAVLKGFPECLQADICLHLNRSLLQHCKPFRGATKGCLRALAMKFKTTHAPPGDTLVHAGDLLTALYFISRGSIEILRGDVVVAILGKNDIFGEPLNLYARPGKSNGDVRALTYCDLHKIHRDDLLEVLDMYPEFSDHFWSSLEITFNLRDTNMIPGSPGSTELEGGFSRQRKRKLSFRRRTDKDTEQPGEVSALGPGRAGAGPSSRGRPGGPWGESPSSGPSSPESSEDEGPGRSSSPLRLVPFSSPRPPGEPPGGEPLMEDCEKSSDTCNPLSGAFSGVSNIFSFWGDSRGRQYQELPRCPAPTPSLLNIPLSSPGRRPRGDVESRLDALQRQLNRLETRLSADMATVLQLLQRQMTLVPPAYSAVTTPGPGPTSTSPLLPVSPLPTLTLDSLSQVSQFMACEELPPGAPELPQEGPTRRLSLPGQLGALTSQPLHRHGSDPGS

SMILES	hERG current change (%, negative = inhibition) at 10uM
CCCCNC(=O)CSc1nc2c(sc(=S)n2-c2cc(Cl)ccc2OC)c(=O)[nH]1	8.53%
CCN1C(=O)N[C@@H](CCc2ccccc2)C(C(C)=O)=C1C	10.8%
Cl.c1ccc(-c2csc(=Nc3cccnc3)n2CC2CCCO2)cc1 (stereo not shown)	-31.4%
CN(C)c1ccnc(Oc2ccc(C(C)(C)C)cc2)c1C#N	-33.3%
COc1cccc(OC)c1OCCCc1c(C)n[nH]c1C	0.765%
CC(C)C(NC(=O)C12CC3CC(CC(C3)C1)C2)C(=O)N/N=C/C1=C(N2CCOCC2)C(=C\c2cccc([N+](=O)[O-])c2)/CC1 (stereo not shown)	-9.5%
Cn1c(O)c(C(=Nc2ccc(F)cc2)c2ccccc2Cl)c(=O)n(C)c1=O	19.7%
Cc1cc(C(=O)Nc2nnc(-c3ccccc3)s2)no1	8.46%
c1ccc(CN2CCN(c3nc(-c4ccccn4)nc4ccccc34)CC2)cc1	5.45%
Cc1nnc(SCC(=O)NC2CCCC2)s1	12.8%
O=C(N/N=C/c1cccs1)c1ccco1	11.8%
CC1=NN(c2ccccc2)C(=O)/C1=C/c1c(O)[nH]c(=S)[nH]c1=O	-3.19%
CCCSc1sc(C(=O)OC)c(-c2cccs2)c1C#N	-6.78%
CCC(=O)c1ccc(OCC(=O)Nc2cc(S(=O)(=O)N3CCCCC3)ccc2OC)cc1	-19.8%
O=C(CNC(=O)c1ccc(S(=O)(=O)N2CCCC2)cc1)N/N=C/c1ccccc1	-42.5%
COc1cccc(-n2c(SCC(=O)NCCc3ccccc3)nnc2-c2ccoc2C)c1	-76.8%
Cc1cc(C)n(CC(O)CN(c2cccc([N+](=O)[O-])c2)S(=O)(=O)c2ccccc2)n1 (stereo not shown)	7.08%
Cc1cc(C)cc(NC(=S)/N=C(\N)Nc2nc(C)c3ccccc3n2)c1	11%
Cc1ccc(CN2C(=O)CSc3ccc(C(=O)NCCN4CCOCC4)cc32)cc1	10.8%
CS(=O)(=O)N(CC(=O)NCc1ccc2c(c1)OCO2)Cc1ccc(Cl)cc1	-49.5%
COc1ccc(S(=O)(=O)N2CCCCCC2)cc1N(C)S(=O)(=O)c1ccccc1	-19%
COc1ccc(CC2(CO)CCN(Cc3ccc4c(c3)CCO4)CC2)cc1	-65.7%

SMILES	hERG current change (%, negative = inhibition) at 10uM
O=C(CN1C(=O)NC2(CCCC2)C1=O)OCCOc1ccc(Cl)cc1	-10.2%
COCCn1cnnc1SCC(=O)Nc1sc2c(c1C#N)CCC2	8.01%
CC1Nc2ncnc(N3CCN(c4ccccc4)CC3)c2N(Cc2ccccc2)C1=O.O=C(O)C(F)(F)F (stereo not shown)	16.1%
Cc1cccc(CC2CC(=O)N(C3CCCCC3)C2=O)c1 (stereo not shown)	0.986%
CCCCCN(C(=O)CCC(=O)OCC(=O)Nc1ccc(C)cc1F)c1c(N)n(CCCC)c(=O)[nH]c1=O	5.51%
CC(C)C(NS(=O)(=O)c1cccs1)C(=O)N(C)Cc1ccccc1 (stereo not shown)	-10.2%
Cn1nc(NC(=O)C2CCC2C(=O)O)c2c(F)cccc21 (stereo not shown)	-0.347%
COC(=O)c1sc2nc(-c3ccccc3)c3c(c2c1N)CCCC3	-8.25%
CCOc1cc(/C=N/NC(=O)CCCC(=O)NC2CCCCC2)ccc1O	7.13%
Cc1c(Cl)cccc1NC(=O)CSc1nc(=O)n(CCCN2CCOCC2)c2c1CCC2	-47.1%
Brc1ccc(CSc2ccc(-c3ccco3)nn2)cc1	21.2%
CN1C(=O)/C(=C\c2ccc(N3CCCCC3)o2)C(=O)NC1=S	8.05%
CC1(C)CC(=O)C=C(/C=C/c2ccccc2)C1	-7.72%
Cc1nn(-c2ccccc2)c(C)c1NC(=O)COC(=O)c1cc([N+](=O)[O-])ccc1NCCO	-13.7%
COc1ccccc1NC(=O)Nc1nc(CC(=O)NC2CCCC2)cs1	-22.1%
O=C1C2C3C=CC(C4CC34)C2C(=O)N1/N=C/c1ccc([N+](=O)[O-])s1 (stereo not shown)	-10.8%
O=C1CCCC2=C1C(c1cn(-c3ccccc3)nc1-c1cccs1)c1c([nH]c(=O)[nH]c1=O)N2 (stereo not shown)	13%
Cc1onc(C(=O)N2CCOCC2)c1[N+](=O)[O-]	19.8%
COc1ccc(CCNc2ccc(C(=O)O)cc2[N+](=O)[O-])cc1OC	15.8%
COC(=O)[C@H](CCSC)NC(=O)Nc1ccc(C(C)=O)cc1	9.56%
Cc1ccc(S(=O)(=O)NCC(=O)OCC(=O)c2c(N)n(C)c(=O)n(C)c2=O)cc1	19.2%
